The results in this text go back to PubChem BioAssay AID938 (National Center for Advancing Translational Sciences (NCATS), 2007).

Where “and” joins values, the source holds several entries; their conditions need not be identical. Identical values can stand only once. Screen size: about 73,000 compounds; about 1,800 (2.5%) were called active. Not shown: some 13% with an inconclusive outcome. Calls follow the shape of the dose curve; as a rule, active = well fitted activation curve with a large enough effect; inconclusive = small, poorly fitted or top-dose-only effect; inactive = no such curve, though single readings can be large or run the other way. The list shows a part of the results, in another mix than the full data. More than one record can exist for a structure, and the calls need not agree.
Potency is read from the fitted curve at half-maximal effect.

A short description of the test: qHTS Assay for Agonists of the Thyroid Stimulating Hormone Receptor: Activators of Intracellular cAMP Concentrations in Parental HEK 293. Also: nearly all actives have a fitted effect of over 55% in size. As to activation: % of control where 0% means no effect. The settings on record: parental HEK293 CNG cAMP sensor, membrane potential fluorescence; series mostly up to 57.1 µM; activation: at the top concentration. From the text: NIH Chemical Genomics Center [NCGC]
NIH Molecular Libraries Screening Centers Network [MLSCN]
PI Name: Dr. Marvin Gershengorn
This cell based assay utilized a cyclic nucleotide gated ion channel (CNG) as a biosensor for cAMP induction. HEK 293 cells stably expressing the modified CNG were purchased from BD biosciences (http://www.atto.com/products/actone/features_benefits.shtml) . Stimulation of cAMP production causes the CNG to open and subsequent membrane depolarization to occur. A fluorescent membrane potential dye (BD biosciences) was utilized to detect cAMP stimulation in cells.
The cells were maintained in DMEM medium (Invitrogen) containing 10 % FBS (Hyclone), 100 units/ml Penicillin, 100 ug/ml Streptomycin (Invitrogen), and 250 ug/ml Geneticin (Invitrogen) and 1 ug/ml Puromycin (Invitrogen) at 37C in 5% CO2. This assay was used as a counterscreen to "qHTS Assay for Agonists of the Thyroid Stimulating Hormone Receptor", to control for compounds signaling through endogenous receptors and other targets of HEK 293 cells.
NCGC Assay Protocol Summary:
High Throughput Screening. Freshly passaged cells were dispensed into 1536-well assay plates at 4 ul/well in DMEM containing phenol red (Invitrogen), 10% FCS (Hyclone), and 100 units/ml Penicillin, 100 ug/ml Streptomycin (Invitrogen) and incubated at 37 C with 5% CO2 for 20 to 36 hrs before the robotic screening. The screen was initiated by addition of 4 ul/well membrane potential dye containing 100 uM RO 20-1724 (Sigma Aldrich), followed by 60 min incubation at room temperature to allow for dye equilibration across the cell membrane. 23 nl/well compound or control was then added to the assay plates, which were incubated for additional 30 min before reading a Envision fluorescence plate reader (Perkin Elmer) in bottom-read mode for fluorescence intensity (emission at 590 nm).
Keywords: cAMP, CNG Ion Channel, quantitative high throughput screening, qHTS, HTS, probe identification, CNG, cAMP, cyclic nucleotide gated ion channel PubChem
With `C=C[C@@H]1CN2CC[C@@H]1C[C@H]2[C@H](O)c1ccnc2ccccc12`, the “activation” value is inactive: 7.15%. As to `C=C[C@H]1CN2CC[C@@H]1C[C@H]2[C@@H](O)c1ccnc2ccccc12`, the Potency result is “inactive”. With `CCOc1ccc(N)cc1`, the “activation” value was inactive: 39%. Same read-out and setting: the same measure for `Nc1c(Br)cc(Br)cc1CNC1CCC(O)CC1` (stereo not drawn): inactive: 8.4% [at 25.6 µM]; for `CCCN1CCO[C@@H]2c3cc(O)ccc3OC[C@H]21`: inactive: 5.58%.

Turning to `COC(=O)Cc1cc(=O)n(-c2ccccc2)[nH]1`, the “activation” value was inactive: -39.1%.

For `CC(C)N(CC[C@@](C(N)=O)(c1ccccc1)c1ccccn1)C(C)C`, the Potency entry is “inactive”. For the compound `CN(C)C(=O)Cl`, the “activation” value was inactive: 14.4%. The same measure, in the same setting: for `N#Cc1ccccc1` the value was inactive: 12.3%.

Regarding `ClCCCCl`, the “activation” value is inactive: -4.27%.

Consider `CC(C)CCn1c(N)c(C(=O)OCC2CCCO2)c2nc3ccccc3nc21` (stereo not drawn), for which the Potency is active: 20 µM. With `CC(=O)C(C)=O`, the Potency entry is “inactive”.

Turning to `C[C@]12CCC(=O)C=C1CC[C@@H]1[C@@H]2CC[C@]2(C)C(=O)CC[C@@H]12`, the Potency result was “inactive”. Consider `O=S(=O)(O)F`, for which the “activation” value was inactive: -24.4%. With `C/C=C/CC#N`, the “activation” value is inactive: -96.7%. For `Oc1ccc2c3c1O[C@H]1c4[nH]c5c(c4C[C@@]4(O)[C@@H](C2)N(CC2CC2)CC[C@]314)C[C@]1(O)[C@H]2Cc3ccc(O)c4c3[C@@]1(CCN2CC1CC1)[C@@H]5O4`, the “activation” value is inactive: -3.81%. For the compound `NC(=S)Nc1ccccc1`, the Potency result is “inactive”. Same read-out and setting: the same measure for `CCC(=O)O[C@H]1CC[C@H]2[C@@H]3CCC4=CC(=O)CC[C@]4(C)[C@H]3CC[C@]12C`: active: 15.8 µM. In the case of `Cc1ccc(N)cc1[N+](=O)[O-]`, the “activation” value is inactive: -7.62%. In the case of `CC(C)CC(N)C1(c2ccc(Cl)cc2)CCC1` (stereo not drawn), the “activation” value was inactive: 21.9%.

On to `CC(Cl)Cl`, for which the “activation” value was inactive: -10.7%. As to `NCCc1c[nH]c2ccc(C(N)=O)cc12`, the “activation” value was inactive: 1.37%. Consider `CC[C@H](CO)NC(=O)[C@H]1C=C2c3cccc4[nH]cc(c34)C[C@@H]2N(C)C1`, for which the “activation” value was inactive: 6.42% [at 25.6 µM].

`Oc1c(Cl)c(Cl)c(Cl)c(Cl)c1Cl` (tested in a mixture with another compound): the activation was inactive: 29.9% [at 11.4 µM] and inactive: 25.3% [at 11.4 µM].

`COc1cc(C[C@H](C)N)c(OC)cc1I`: the “activation” value was inactive: 11.7%. Same read-out and setting: for `O=[N+]([O-])c1ccc(O)c([N+](=O)[O-])c1` the value was inactive: 16.6%; for `O=C(O)C(Br)CBr` (stereo not drawn), inactive: -15.6%. As to `O=C(CCCN1CCC2(CC1)C(=O)N(Cc1cccc(F)c1)CN2c1ccccc1)c1ccc(F)cc1`, the “activation” value was inactive: -37%. Same read-out and setting: the same measure for `CCCCCCCCCCCCCl`: inactive: -17%; for `CN1C(=O)CCS(=O)(=O)[C@@H]1c1ccc(Cl)cc1`: inactive: -2.27% [at 25.6 µM]. With `CCCC/C=C/[C@@H](NP(=O)(c1ccccc1)c1ccccc1)c1ccccc1OC`, the Potency is active: 2 µM.

For the compound `CCOC(=O)CNC(=O)CSP(=S)(OCC)OCC`, the “activation” value was inactive: 7.63%.

In the case of `O=C(CCC1CCCC1)c1c(O)c2ccccc2oc1=O`, the “activation” value was inactive: 7.68%. The same measure, in the same setting: for `CCCC(=O)Cl` the value was inactive: 24%; for `C[C@@H](COc1ccccc1)N(CCCl)Cc1ccccc1`, inactive: 10.4% [at 25.6 µM]; for `Oc1cc(Cl)cc(Cl)c1Cl`, inactive: 24.5%.

For the compound `O[C@H]1CCCC[C@H]1N1CCC(c2ccccc2)CC1`, the “activation” value is inactive: 18.7% [at 25.6 µM]. Same read-out and setting: for `CC(=O)NCCc1c[nH]c2ccccc12` the value was inactive: -2.88%. Still for that read-out and setting: the same measure for `O=C(O)CCl`: inactive: -33.2%.

For `CP(=O)(O)CCCN`, the Potency result is “inactive”. As to `CCCCCCCCCCCOC(=O)c1ccccc1C(=O)OCCCCCCCCCCC`, the “activation” value was inactive: -17.9%. Still for that read-out and setting: for `OCC(CBr)(CBr)CBr` the value was inactive: 4.88%. Still for that read-out and setting: the same measure for `O=C(O)c1ccc(C(=O)O)cc1`: inactive: 20.6%; for `N[C@H](CP(=O)(O)O)C(=O)O`: inactive: -0.313%.

In the case of `ClC(Cl)(Cl)Cl`, the Potency result is “inactive”.

On to `CCOC(=O)c1c(C)n(CCOC)c2ccc(O)cc12`, for which the “activation” value is inactive: -53.4%.

With `N[C@H](CCP(=O)(O)O)C(=O)O`, the Potency entry was “inactive”. `CN1[C@@H]2CC(OC(=O)[C@@H](CO)c3ccccc3)C[C@H]1[C@H]1O[C@H]12` (stereo partly drawn): the “activation” value was inactive: -6.54%. Same read-out and setting: for `CC[N+](=O)[O-]` the value was inactive: 10.6%.

Take `Nc1cccc2c(N)cccc12`: the “activation” value is inactive: 17%. The same measure, in the same setting: the same measure for `CCOP(=S)(OCC)Oc1cc(C)nc(C(C)C)n1`: inactive: -30.9%; for `c1ccc(N=NNc2ccccc2)cc1`: inactive: -5.21%; for `CC[N+](CC)(CC)CCOc1cccc(OCC[N+](CC)(CC)CC)c1OCC[N+](CC)(CC)CC`: inactive: -3.44% [at 25.6 µM].

As for `Nc1ccc(Oc2ccc(N)cc2)cc1`, the “activation” value is inactive: -3.33%. Take `COc1c2ccoc2cc2oc(=O)ccc12`: the Potency result was “inactive”. Take `CC(C)NC[C@H](O)COc1cccc2[nH]ccc12`: the “activation” value was inactive: 5.09%. Same read-out and setting: for `O=Nc1ccc(Nc2ccccc2)cc1` the value was inactive: -21.2%; for `C(CCOCC1CO1)COCC1CO1` (stereo not drawn), inactive: 25.4%; for `Cc1ccc([N+](=O)[O-])cc1C`, inactive: -2.99%.

As for `C[C@]12CC[C@H]3[C@@H](CCC4=CC(=O)CC[C@@]43C)[C@@H]1CC[C@@H]2O`, the “activation” value was inactive: -31.7%. Still for that read-out and setting: for `CC(C)c1ccc2c(c1)CC[C@H]1[C@@](C)(CN)CCC[C@@]21C` the value was inactive: -6.92% [at 11.4 µM]; for `Cc1cccc([N+](=O)[O-])c1`, inactive: 3.48%. On to `N#Cc1ccc(CN2CCCC3(CCN(C(=O)Oc4ccccc4)CC3)C2)cc1`, for which the Potency is active: 15.8 µM.
